The other results are listed elsewhere or left out.
Tests used:
HSkMC = human skeletal muscle cells; assay: cytotoxicity call (relative viability < 0.9); conditions: 10 µM
S. aureus RN4220 = assay: growth inhibition call (relative growth <= 0.2); conditions: 50 µM

Structure (SMILES)	cytotoxicity call (HSkMC)	growth inhibition call (S. aureus RN4220)
Oc1ccccc1-c1ccccc1O	inactive	inactive
O=C1CC(=O)N(Cc2ccccc2)C(=O)N1	inactive	inactive
CC1(C)C(O)CC(O)C2(C)C1CC(=O)C1(C)C2CCC2(C)C(c3ccoc3)OC(=O)C3OC321 (stereo unspecified)	inactive	inactive
c1cc2c(c(N3CCNCC3)c1)OCCO2	inactive	inactive
NCCc1nnc2n1CCCCC2	inactive	inactive
COCCN1[C@@H]2CC[C@H]1CN(c1ncccn1)C2	inactive	inactive
CN1[C@@H]2CC[C@@H]1CC(N)C2 (stereo partly specified)	inactive	inactive
CN1C[C@H]2CN(Cc3nccn3C)C[C@H]2C1=O	inactive	inactive
CCC1(O)CC(O)c2c(cc3c(c2O)C(=O)c2c(O)ccc(O)c2C3=O)C1C(=O)OC (stereo unspecified)	inactive	inactive
CNC1C(O)C(OC2C(N)CC(N)C(OC3OC(C(C)O)C(O)C(O)C3N)C2O)OCC1(C)O (stereo unspecified)	inactive	active
C[C@H](CO)N1C[C@H](C)[C@@H](CN(C)C(=O)Oc2ccc3ccccc3c2)OCc2cn(nn2)CCCC1=O	inactive	inactive
c1cnc(N2CCOC[C@@]3(CCCNC3)C2)cn1	inactive	inactive
NC1(c2cccc(Cl)c2)CC1	inactive	inactive
Cn1c(CCN)nc2ccccc21	inactive	inactive
CC[C@@H](CN)c1ccccc1	inactive	inactive
NCC(=O)c1ccccc1	inactive	inactive
C[C@@H](O)CN1C[C@H]2C[C@@H](C1)c1cccc(=O)n1C2	inactive	inactive
CC(C)C[C@@H]1NC[C@@H]2CCCN2C1=O	inactive	inactive
